Assay results taken from the BET-seq Pho4 binding data (Le et al. 2018).
Some of the results follow. Values were computed here from the reads of four pooled replicates and scatter widely.

These sequences were tested against T1, Pho4 (S. cerevisiae) (UniProt P07270) (assay: relative binding free energy (BET-seq); higher = weaker binding). Settings: reference: library average.
T1 sequence: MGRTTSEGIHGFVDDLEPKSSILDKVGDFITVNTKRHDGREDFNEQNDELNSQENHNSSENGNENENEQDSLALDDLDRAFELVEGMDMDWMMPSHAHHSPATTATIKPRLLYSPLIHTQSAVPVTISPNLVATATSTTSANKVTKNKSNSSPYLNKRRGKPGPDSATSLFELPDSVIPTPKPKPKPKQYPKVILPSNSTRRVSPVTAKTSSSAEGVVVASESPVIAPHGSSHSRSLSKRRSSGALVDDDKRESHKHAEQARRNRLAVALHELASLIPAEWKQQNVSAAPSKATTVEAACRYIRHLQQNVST
For GAGTACACGTGTCGGG, the “relative binding free energy” value was 0.418 kJ/mol.
TACATCACGTGGTTTG was tested, and the “relative binding free energy” value was 0.669 kJ/mol.
With CGGTGCACGTGTCTGT the “relative binding free energy” value was -0.209 kJ/mol.
CTTGTCACGTGATGGC was tested, and the “relative binding free energy” value was 1 kJ/mol.
With CGGTGCACGTGGTCGG the “relative binding free energy” value was -0.418 kJ/mol.
AAAGACACGTGTTTTA was tested, and the “relative binding free energy” value was 0.377 kJ/mol.
For CGGTTCACGTGCGTGG, the “relative binding free energy” value was 0.753 kJ/mol.
For CCTGGCACGTGGGCGT, the “relative binding free energy” value was -1.34 kJ/mol.
For AACGGCACGTGTTTTT, the “relative binding free energy” value was -0.544 kJ/mol.
In the case of GTATGCACGTGTGTAA, the “relative binding free energy” value is reported as -0.293 kJ/mol.
For TGAGGCACGTGAAGTG, the “relative binding free energy” value was 1.26 kJ/mol.
AGAGGCACGTGGGCGC was tested, and the “relative binding free energy” value was -0.92 kJ/mol.
In the case of AGTGGCACGTGTATAG, the “relative binding free energy” value is reported as -0.502 kJ/mol.
TGTGTCACGTGGTTGA was tested, and the “relative binding free energy” value was 0.167 kJ/mol.
TACGACACGTGGTTTG was tested, and the “relative binding free energy” value was -0.126 kJ/mol.
For TATGACACGTGTTTTT, the “relative binding free energy” value was 0.126 kJ/mol.
In the case of GTTAACACGTGGCTGT, the “relative binding free energy” value is reported as -0.126 kJ/mol.
TCCAGCACGTGGGTTG was tested, and the “relative binding free energy” value was -0.377 kJ/mol.
GTTCGCACGTGATTGT was tested, and the “relative binding free energy” value was -0.0418 kJ/mol.
For GGATACACGTGGCTTG, the “relative binding free energy” value was 0.418 kJ/mol.
GGCTCCACGTGAGGGG was tested, and the “relative binding free energy” value was 0.502 kJ/mol.
In the case of TCGGACACGTGAGGGG, the “relative binding free energy” value is reported as 1.38 kJ/mol.
For GCGTGCACGTGTTTGT, the “relative binding free energy” value was 0.0837 kJ/mol.
In the case of TAGTGCACGTGTGTAG, the “relative binding free energy” value is reported as 0 kJ/mol.
For TGCGCCACGTGGGGGC, the “relative binding free energy” value was -1 kJ/mol.
With TTATTCACGTGTAAGG the “relative binding free energy” value was 0.962 kJ/mol.
TATTGCACGTGTGAGG was tested, and the “relative binding free energy” value was 0.126 kJ/mol.
For TTTGCCACGTGCAGGT, the “relative binding free energy” value was -0.879 kJ/mol.
GTTCGCACGTGGGAGG was tested, and the “relative binding free energy” value was -0.209 kJ/mol.
With GTTGACACGTGCCAGG the “relative binding free energy” value was 0.167 kJ/mol.
For GGTGACACGTGGAGGC, the “relative binding free energy” value was 0.126 kJ/mol.
AATTTCACGTGTTAGC was tested, and the “relative binding free energy” value was 1.21 kJ/mol.
With CGCGGCACGTGTTTAT the “relative binding free energy” value was 0.126 kJ/mol.
TGAGTCACGTGTATCG was tested, and the “relative binding free energy” value was 0.0837 kJ/mol.
With ATGTTCACGTGGGCTG the “relative binding free energy” value was 0.335 kJ/mol.
CATTACACGTGATGGT was tested, and the “relative binding free energy” value was 1.09 kJ/mol.
For TTTATCACGTGAGGAA, the “relative binding free energy” value was 1.63 kJ/mol.
With GTACACACGTGGAGGG the “relative binding free energy” value was -0.0837 kJ/mol.
GTTCTCACGTGAGGTC was tested, and the “relative binding free energy” value was 2.09 kJ/mol.
For GTTGTCACGTGAGCGA, the “relative binding free energy” value was 0.795 kJ/mol.
In the case of GTCGACACGTGGGAGG, the “relative binding free energy” value is reported as -0.377 kJ/mol.
In the case of GTAAGCACGTGCTTGT, the “relative binding free energy” value is reported as -0.502 kJ/mol.
In the case of TCAATCACGTGGTATG, the “relative binding free energy” value is reported as 0.209 kJ/mol.
With TTCGTCACGTGCAAGG the “relative binding free energy” value was 1 kJ/mol.
With CGGGTCACGTGCAGTA the “relative binding free energy” value was 0.586 kJ/mol.
For TGTGCCACGTGAGGTA, the “relative binding free energy” value was 0.544 kJ/mol.
With TTGGGCACGTGGTCAC the “relative binding free energy” value was -1.05 kJ/mol.
In the case of AACGGCACGTGTTTTG, the “relative binding free energy” value is reported as -0.795 kJ/mol.
For TGATTCACGTGGGGAC, the “relative binding free energy” value was 0.669 kJ/mol.
For TGGTACACGTGGTCAT, the “relative binding free energy” value was -0.126 kJ/mol.
For CGTTACACGTGGGGGA, the “relative binding free energy” value was -0.669 kJ/mol.
TGTGCCACGTGGTCTT was tested, and the “relative binding free energy” value was -0.92 kJ/mol.
For GTTAACACGTGTATAG, the “relative binding free energy” value was 0 kJ/mol.
For GTAATCACGTGAGGTC, the “relative binding free energy” value was 1.55 kJ/mol.
In the case of TTTTACACGTGCGAGT, the “relative binding free energy” value is reported as -0.0837 kJ/mol.
In the case of GGGCGCACGTGTGTAG, the “relative binding free energy” value is reported as -0.669 kJ/mol.
With CATGTCACGTGGGGTC the “relative binding free energy” value was -0.46 kJ/mol.
In the case of AGTTGCACGTGCCGTG, the “relative binding free energy” value is reported as -0.418 kJ/mol.
In the case of GGGGGCACGTGATTGA, the “relative binding free energy” value is reported as 0.293 kJ/mol.
For TGGATCACGTGTGGGA, the “relative binding free energy” value was 1.21 kJ/mol.
For CTATTCACGTGTGTTT, the “relative binding free energy” value was 1.46 kJ/mol.
With GCTATCACGTGATGTG the “relative binding free energy” value was 1.21 kJ/mol.
For GCGTTCACGTGGAGGC, the “relative binding free energy” value was 1.55 kJ/mol.
In the case of CGGTGCACGTGGCCGG, the “relative binding free energy” value is reported as -0.418 kJ/mol.
With GGTGTCACGTGGCCTG the “relative binding free energy” value was -0.0418 kJ/mol.
For AGGTTCACGTGTGTAA, the “relative binding free energy” value was 1.05 kJ/mol.
TTTCGCACGTGGTTTA was tested, and the “relative binding free energy” value was -0.46 kJ/mol.
For GGGGACACGTGACTGG, the “relative binding free energy” value was 0.962 kJ/mol.
For TCTATCACGTGGCGGT, the “relative binding free energy” value was -0.251 kJ/mol.
In the case of TGTCCCACGTGGTTGT, the “relative binding free energy” value is reported as -0.92 kJ/mol.
With CGTTTCACGTGTAGGG the “relative binding free energy” value was 0.837 kJ/mol.
In the case of TATGGCACGTGAACTG, the “relative binding free energy” value is reported as 0.293 kJ/mol.
With CGGGACACGTGTTTAG the “relative binding free energy” value was 0.209 kJ/mol.
